PubChem BioAssay AID1159614 (National Center for Advancing Translational Sciences (NCATS), 2016)
Screen size: about 45,000 compounds; about 65 (0.1%) were called active. Calls come from the whole dose curve; as a rule, active = well fitted activation curve with a large enough effect; inconclusive = small, poorly fitted or top-dose-only effect; inactive = no such curve, though single readings can be large or run the other way. This is one part of the list.

The compounds below were run against Galactocerebrosidase (Homo sapiens) (UniProt P54803) (assay: A Novel Cell-Based Assay to Identify Small Molecules for B -Galactocerebrosidase). Conditions: 145M-Twi-hGALC-G270D cells (Twitcher mouse brain line with human GALC G270D), HMU-beta-Gal fluorescence, 48 h; series mostly up to 57.5 µM; activation: at the top concentration.
Chain of UniProt P54803 (P54803 whole entry, looked up): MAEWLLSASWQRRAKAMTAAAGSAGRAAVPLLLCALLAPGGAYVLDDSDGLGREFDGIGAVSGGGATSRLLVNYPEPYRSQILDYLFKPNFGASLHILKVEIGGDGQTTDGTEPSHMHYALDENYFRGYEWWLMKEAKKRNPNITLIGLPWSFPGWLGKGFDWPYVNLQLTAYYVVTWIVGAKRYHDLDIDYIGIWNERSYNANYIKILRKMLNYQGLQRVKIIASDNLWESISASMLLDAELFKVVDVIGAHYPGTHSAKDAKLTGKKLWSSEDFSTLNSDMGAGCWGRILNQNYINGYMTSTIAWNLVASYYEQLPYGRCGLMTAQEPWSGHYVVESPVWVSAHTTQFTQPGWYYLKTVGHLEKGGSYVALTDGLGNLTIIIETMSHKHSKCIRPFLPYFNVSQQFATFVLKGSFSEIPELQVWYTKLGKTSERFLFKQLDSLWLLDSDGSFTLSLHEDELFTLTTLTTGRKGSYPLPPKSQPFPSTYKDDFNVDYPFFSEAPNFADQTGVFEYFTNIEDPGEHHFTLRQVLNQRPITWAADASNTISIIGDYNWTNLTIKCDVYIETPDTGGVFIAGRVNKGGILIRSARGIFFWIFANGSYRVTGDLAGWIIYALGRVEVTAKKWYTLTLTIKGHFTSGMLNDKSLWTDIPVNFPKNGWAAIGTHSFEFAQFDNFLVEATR
In short: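 Fluorescence readout: HMU-β-gal cleavage by mutant GALC (0.1 mM final, citrate/phosphate pH 5.2 with 1 mg/mL taurocholate), stopped with carbonate/bicarbonate plus Triton X-100. Cells: murine Twitcher 145M-Twi expressing human G270D GALC; qHTS for activators.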
Note: 0% is about no effect; nearly all actives have a fitted effect of over 65% in size.

activation, inactive:
CCOc1ccc(S(=O)(=O)NCCc2c(C)[nH]c3c(Cl)cccc23)cc1C -11.2%, CSc1nc2c(sc3ccccc32)c(=O)n1Cc1ccc(C)cc1 -9.79%, CCn1c(=O)c(=O)n(CC)c2cc(N3CCCCC3)c(NC(=O)c3ccccc3OC)cc21 -23.3%, COc1ccccc1-c1c(C)nn2c(N3CCN(c4ccccc4)CC3)cc(C)nc12 -7.87%, CCOc1ccc(-c2nc(CSCC(=O)NCCc3ccc(OCC)c(OCC)c3)c(C)o2)cc1 -10.4%, CCCN1CCN(CC2=C(C(=O)OCC)C(c3ccc(OC(C)C)cc3)NC(=O)N2)CC1 (stereo not given) -7.85%, CCC(C)NC(=O)CSc1c2c(nc3cc(Cl)ccc13)CCCC2 (stereo not given) -8.9%, COc1ccc(C(=O)Nc2cc(-c3nc4ccccc4s3)ccc2OC)cc1 -11.1%, O=C(Nc1ccc2nc(SCC(=O)N3CCOCC3)sc2c1)c1ccc(Br)cc1 -11.6%, COc1cccc(CNC(=O)C(=O)NCC(c2ccc3c(c2)OCO3)N2CCOCC2)c1 (stereo not given) -6.05%, CCCOC1(C(F)(F)F)NC(=O)N(c2cccc(Cl)c2)C1=O (stereo not given) -14.7%, C=Cc1ccc(Cn2c(C(=O)O)c(CNC3CCCCC3)c3ccc(OC)cc32)cc1 -1.23%, O=C(NCCc1ccc(Cl)cc1)C(=O)NCC(c1cccs1)S(=O)(=O)c1cccs1 (stereo not given) 5.21%, COc1ccc(OC)c(CNC(=O)CN2N=C(c3ccc(Cl)cc3)CCC2=O)c1 -8.79%, COc1ccc(-n2nc3cc(C)c(NC(=O)Cc4ccc(Cl)cc4)cc3n2)cc1 -0.709%, Cc1cc2oc(C(=O)Nc3cccc(-c4nc5ccccc5o4)c3)c(C)c2cc1C -9.38%, CCOC(=O)c1ccccc1NC(=O)Nc1cc2c(cc1N1CCCC1)n(C)c(=O)n2C 11.7%, CCOc1ccc(NC(=O)CSc2nnc(CNC(=O)C34CC5CC(CC(C5)C3)C4)n2CC)cc1 -13.4%, COc1cccc(Cn2c(C)c(CNC3CCCCC3)c(C(=O)O)c2C)c1 -14.3%, CCCC12CN3CC(CCC)(CN(C1)C3c1ccc(OC(C)C)cc1)C2=O (stereo not given) -30.2%, Cc1c(C(=O)N(C)C)sc2c1c(=O)n(-c1ccc(Cl)c(Cl)c1)c(=O)n2CC(=O)N1CCCCC1C (stereo not given) -11.5%, COc1cc(C(=O)N(Cc2ccc(N(C)C)cc2)CC2CCCO2)cc(OC)c1OC (stereo not given) -9.42%, COc1ccc(-c2noc(-c3ccc(N4CCN(c5ccccc5OC)CC4)c([N+](=O)[O-])c3)n2)cc1 -8.03%, CCCN1CN=C(NS(=O)(=O)c2ccc(NC(C)=O)cc2)NC1 -13.7%, O=C(NCCc1ccccc1)c1ccc(Cn2c(SCc3ccccc3F)nc3cccnc32)cc1 -0.116%, O=C(CSc1nc(=O)n(Cc2ccncc2)c2c1CCC2)Nc1ccc(F)cc1F -24.8%, CC(Oc1ccccc1)C(=O)Nc1ccccc1C(=O)OCc1cc(=O)n2nc(C(C)C)sc2n1 (stereo not given) -6.37%, CCc1ccc(NC(=O)CSc2nc(-c3cccc(OC)c3)nc3c2Cc2c(CO)cnc(C)c2O3)cc1 -19.8%, Cc1ccc2nc(-c3ccc(C)o3)c(Nc3ccc4c(c3)OCCO4)n2c1 -21.6%, COc1ccc(NC(=O)c2oc3ccccc3c2NC(=O)Cc2coc3ccc(C)cc23)cc1 -12%, O=C(c1cnc2c(c1)COc1ccc(Cl)cc1-2)c1ccccc1O -0.516%, COc1ccc(N2CC(NC(=O)C3CCCCC3)CC2=O)cc1OC (stereo not given) -13.7%, COc1ccc(N2CCN(C(=O)CN3C(=O)COc4ccc(S(=O)(=O)N5CCC(C)CC5)cc43)CC2)cc1 0.348%, Clc1ccccc1CSc1nnc(C2CCNCC2)o1 -14.2%, CCOc1ccc(NC(=O)CCCOc2cc(=O)n(C)c3ccccc23)cc1 -2.06%, COc1ccc(N2CCN(S(=O)(=O)CCNC(=O)Cc3ccc(OC)c(OC)c3)CC2)cc1 -9.78%, Cc1nc(SCC(=O)Nc2nsc(-c3ccc(C(C)(C)C)cc3)n2)c2c3c(sc2n1)CCCC3 6.78%, Cc1ccc(C)c(N2CCN(C(=O)c3cc4c(=O)oc5ccccc5c4s3)CC2)c1 19.6%, O=C(Cn1c(=O)n(-c2ccccc2)c(=O)c2ccc(C(=O)NCc3ccc4c(c3)OCO4)cc21)Nc1ccc(Br)cc1 6.56%, COc1ccc(OC)c(CNC(=O)c2ccc3c(c2)c(C)c(C)n3C)c1 4.3%, CCCCN(CC)C(=O)c1nn(-c2ccc(OC)cc2)c(=O)c2c1c1ccccc1n2C -2.1%, CCOc1cc(CNC(=O)c2ccc3nc(C(C)C)oc3c2)cc(OCC)c1OCC -15.6%, O=C(CSc1nc2ncccc2o1)Nc1cccc(C(F)(F)F)c1 -8.17%, CCS(=O)(=O)c1oc(-c2ccc(F)cc2)nc1S(=O)(=O)c1ccccc1 -39.7%, C=C1C(=C/C=C2\CCC[C@]3(C)[C@@H]([C@H](C)/C=C/[C@@H](O)C4CC4)CC[C@@H]23)C[C@@H](O)C[C@@H]1O -9.79%, Cc1ccc2occ(-c3cc(-c4ccc(F)cc4)nc4c3COc3ccc(F)cc3-4)c(=O)c2c1 -10.2%, COC(=O)c1ccc(NC(=O)CCc2c(C)nc3c(c(C)nn3C(C)(C)C)c2C)cc1 -12.4%, Nc1ncnc2c1ncn2[C@@H]1O[C@H](CO)[C@@H](O)[C@H]1O -3.91%, CCN(C(=O)CSc1nc(-c2ccccc2)no1)c1ccccc1 -12.2%, CN(C)C(=O)c1ccc2c(c1)N(CC(=O)NCc1ccccc1Cl)C(=O)C1CCCCN21 (stereo not given) -8.03%, COc1ccc(OC)c(CNC(=O)c2nn(C)c3c2CS(=O)(=O)c2ccccc2-3)c1 -6.23%, Cc1ccccc1CSc1nc(-c2cccc(F)c2)nc2c1Cc1c(CO)cnc(C)c1O2 -4.27%, CCN(CC)S(=O)(=O)c1ccc2nc(NC(=O)c3ccc(Br)o3)sc2c1 -9.32%, O=C(Nc1nc2ccc(Cl)cc2s1)c1ccc(S(=O)(=O)N2CCCC2)cc1 12.1%, CCN(CC)c1ccc(C(=O)N2CCC(c3ccncc3)CC2)cc1 -5.26%, CCOC(=O)c1nc(Nc2ccccc2C)c2ccccc2n1 -6.06%, Cc1cccc(NC(=O)C2CCCN(c3nnc(-n4c(C)ccc4C)s3)C2)c1C (stereo not given) -18.4%, CCOc1cccc(C2c3[nH]c4ccccc4c3CCN2C(=O)CCc2ccccc2)c1 (stereo not given) -11.1%, CC(C)c1ccc(NC(=O)CN2C(=O)c3cccc4cccc2c34)cc1 -4.63%, CCc1ccc(S(=O)(=O)c2cn(C)c3cc(OC)c(OC)cc3c2=O)cc1 -7.43%, CCCN(CCC)S(=O)(=O)c1ccc(C(=O)O)cc1 -18.1%, CCOC(=O)C1CCCN(C(=O)c2ccc3c(c2)N(Cc2cccc(Cl)c2)C(=O)c2ccccc2S3(=O)=O)C1 (stereo not given) -17.4%, COc1ccc(C)cc1NC(=O)CN1C(=O)COc2ccc(S(=O)(=O)N3CCCCCC3)cc21 3.06%, CCCN(C(=O)Cn1c(=O)oc2cc(Cl)ccc21)c1ccc(C(C)C)cc1 -12.4%, COc1ccc(CNC(=O)Cc2coc3ccc(C(C)C)cc23)cc1 -25%, CCOc1ccccc1CNC(=O)CSc1n[nH]c(-c2ccccc2Cl)n1 -0.761%, Cc1cc(C)c(S(=O)(=O)NCC(c2ccc(N(C)C)cc2)N2CCc3ccccc32)c(C)c1 (stereo not given) -1.15%, Cc1ccc(C)c(CN2C(=O)c3ccccc3S(=O)(=O)c3ccc(C(=O)N4CCN(C)CC4)cc32)c1 -6.68%, Cc1cc(Nc2cc(Cl)ccc2C)n2nc(Cc3ccccc3)nc2n1 -8.05%, CCOC(=O)c1ccc(Nc2nc(C(=O)OCC)nc3ccccc23)cc1 -5.73%, O=C(CN1C(=O)COc2ccc(S(=O)(=O)N3CCCCC3)cc21)NCc1ccccc1Cl -19%, COc1ccc(-c2nnc(SCC(=O)Oc3cccc(C)c3C)o2)cc1 -7.49%, COc1cccc(CNC(=O)CCc2nc(-c3ccc(C)cc3)no2)c1 -11%, COc1ccccc1NC(=O)CSc1oc(-c2ccco2)nc1S(=O)(=O)c1ccc(Br)cc1 -5.97%, Cc1cc(OCCn2cc(C(=O)c3ccco3)c3ccccc32)ccc1Cl -10.1%, COc1ccccc1Oc1nc2c(C)cccn2c(=O)c1/C=C(\C#N)c1nc2ccccc2[nH]1 -14.4%, Cc1nn(CC(=O)NCc2cccc(F)c2)c(=O)c2c(C)n(-c3ccc(Cl)cc3)nc12 6.08%, CCOC(=O)c1cc(-c2ccc(C)cc2)n(CC(=O)Nc2ccc(OC)c(Cl)c2)c1C -1.55%, CC(C)(C)NCC(O)COc1ccc(NC(=O)NC2CCCCC2)cc1 (stereo not given) -12.2%, Cc1ccc(CCNC(=O)c2cc3sccc3n2Cc2ccc(Cl)cc2)cc1 -17.2%, COc1ccc(-n2cc(C(=O)NCc3ccc(Cl)cc3)c3ccccc3c2=O)cc1 -3.1%, COc1ccc2nc(N(Cc3cccnc3)C(=O)c3ccco3)sc2c1 -8%, CCOC(=O)C1=C(CN2CCN(c3cc(C)ccc3C)CC2)NC(=O)NC1c1ccccc1 (stereo not given) 14.4%, CC1CN(C(=O)CCC(=O)NCc2cccs2)c2cc(Cl)ccc2O1 (stereo not given) -26.6%, COc1ccc(N(C(=O)c2ccccc2C)S(=O)(=O)c2ccc(C)cc2)cc1 -11.5%, Cc1ccc2c(c1)c1c(c(=O)n(-c3ccccc3)c(=O)n1CC(=O)NCCC1=CCCCC1)n2C 7.77%, Cc1ccc(-c2nnn(CC(=O)N(CC(=O)NCCC(C)C)c3ccc(F)cc3)n2)cc1 -16.4%, O=C(c1ccc2c(c1)OCCO2)N(Cc1cccnc1)c1nc2ccc(Cl)cc2s1 -9.22%, COc1cccc(CN2C(=O)C3(SCC(=O)N3c3cc(C)cc(C)c3)c3ccccc32)c1 (stereo not given) -35.4%, COc1ccccc1N1CCN(S(=O)(=O)c2cc(-c3cc(C)no3)ccc2C)CC1 -16.8%, CCc1ccc2oc(C(=O)NCCc3ccc(OC)c(OC)c3)cc(=O)c2c1 -13.9%, Cc1ccc2nc(-c3c[nH]c4ccccc34)c(Nc3ccccc3)n2c1 -12%, O=C(NCCc1ccc(F)cc1)C(=O)NCC(c1ccc2c(c1)OCO2)N1CCOCC1 (stereo not given) -12.9%, Cc1coc2c1c(C)cc1oc(=O)c(CC(=O)NCc3ccc(Cl)cc3)c(C)c12 -2.26%, CCCCCOC(=O)c1ccc(Nc2nc(C(=O)OCC)nc3ccccc23)cc1 -15.3%
